The full ranking holds about 33,000 sequences; the median of “E-score (-0.5 to 0.5)” is about -0.054, and the highest 2% start at about 0.39. The list shows a part of the results.
Biological target: Ylr278c (UniProt Q05854)
Test: PBM E-score (8-mer binding enrichment) (E-score (-0.5 to 0.5)); higher = stronger / more preferred TF binding; most listed sequences are background and not binding sites
Settings: protein concentration: 200 nM; construct: GST-DNA-binding domain
In short: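 Universal all-10-mer Agilent arrays, fresh or stripped once, were converted to double-stranded form by primer extension. GST-tagged yeast transcription factors from PURExpress in vitro transcription/translation, full-length or DNA-binding domain only, were applied at about 100-200 nM and detected with fluorescent anti-GST. After masliner normalisation, the Universal PBM Analysis Suite scored each ungapped eight-base word together with its reverse complement by E-score.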

Q: For CACCAGAA, which “PBM E-score” value is on record?
A: Its value is -0.277.

Q: Which “PBM E-score” value does the source give for AGGACACA here?
A: The value was -0.0917.

Q: Which “PBM E-score” value does the source give for GATGACGA here?
A: Its value is -0.207.

Q: CGCCAGAA was tested. Which “PBM E-score” value did it give?
A: Its value is 0.00671.

Q: Which “PBM E-score” value does the source give for CATTCCAA here?
A: The value was -0.174.

Q: Which “PBM E-score” value does the source give for TTAGGAAA here?
A: The value was -0.204.

Q: For CTAGAAGA, which “PBM E-score” value is on record?
A: The value was -0.136.

Q: For AAGCTCCA, which “PBM E-score” value is on record?
A: Its value is -0.18.

Q: How did the “PBM E-score” value turn out when ACCGGCCC was run?
A: Its value is 0.251.

Q: For AGGAATAC, which “PBM E-score” value is on record?
A: The value was -0.0793.

Q: How did the “PBM E-score” value turn out when TGGGGCAA was run?
A: Its value is -0.228.

Q: How did the “PBM E-score” value turn out when CGGGTATC was run?
A: Its value is 0.0993.

Q: For GCGGTCGA, which “PBM E-score” value is on record?
A: The value was 0.188.

Q: With ATACACAG as the sequence, how does the “PBM E-score” value read?
A: Its value is -0.21.

Q: GGGTTATA was tested. Which “PBM E-score” value did it give?
A: The value was -0.0437.

Q: With CATAAAGC as the sequence, how does the “PBM E-score” value read?
A: The value was -0.265.

Q: Which “PBM E-score” value does the source give for ATATTTAG here?
A: Its value is -0.0675.

Q: Which “PBM E-score” value does the source give for GATCCGGA here?
A: The value was 0.439.

Q: How did the “PBM E-score” value turn out when ATAGCATC was run?
A: Its value is -0.158.

Q: How did the “PBM E-score” value turn out when AATTTCGC was run?
A: Its value is 0.182.

Q: For ATACGGCG, which “PBM E-score” value is on record?
A: The value was 0.263.

Q: How did the “PBM E-score” value turn out when CAGGACAA was run?
A: The value was 0.0271.

Q: For GAAAATCA, which “PBM E-score” value is on record?
A: Its value is 0.0185.

Q: How did the “PBM E-score” value turn out when CCGTACGA was run?
A: The value was 0.0173.

Q: CCGGCCGC was tested. Which “PBM E-score” value did it give?
A: Its value is 0.327.

Q: CCCACGTA was tested. Which “PBM E-score” value did it give?
A: The value was -0.213.

Q: How did the “PBM E-score” value turn out when AGTCATGC was run?
A: The value was -0.146.

Q: With CTTCACCA as the sequence, how does the “PBM E-score” value read?
A: The value was -0.159.

Q: For ACACTCAG, which “PBM E-score” value is on record?
A: The value was -0.128.

Q: AGGAAATA was tested. Which “PBM E-score” value did it give?
A: Its value is 0.0859.

Q: Which “PBM E-score” value does the source give for ACAGTGTC here?
A: Its value is -0.211.

Q: TGTCAAAA was tested. Which “PBM E-score” value did it give?
A: Its value is -0.0835.

Q: How did the “PBM E-score” value turn out when AATTGTAT was run?
A: Its value is -0.0535.

Q: For ATTTTGGA, which “PBM E-score” value is on record?
A: The value was 0.168.

Q: CACTTCCC was tested. Which “PBM E-score” value did it give?
A: Its value is 0.0266.

Q: For AAAAAAGG, which “PBM E-score” value is on record?
A: Its value is 0.1.

Q: For CTGAAATC, which “PBM E-score” value is on record?
A: The value was 0.0679.

Q: Which “PBM E-score” value does the source give for CTCTAGGA here?
A: Its value is -0.208.

Q: For AGCCCTGA, which “PBM E-score” value is on record?
A: Its value is -0.159.

Q: For AGGAATCA, which “PBM E-score” value is on record?
A: The value was -0.0846.

Q: With AATTCTAT as the sequence, how does the “PBM E-score” value read?
A: The value was -0.243.

Q: CCTTTGCG was tested. Which “PBM E-score” value did it give?
A: The value was 0.00026.

Q: How did the “PBM E-score” value turn out when ACTGAATC was run?
A: Its value is -0.182.

Q: For GAGTCGTA, which “PBM E-score” value is on record?
A: Its value is -0.0963.

Q: How did the “PBM E-score” value turn out when GGCCCGTA was run?
A: Its value is 0.173.

Q: How did the “PBM E-score” value turn out when GTTGTGTA was run?
A: The value was -0.159.

Q: Which “PBM E-score” value does the source give for CCAATCAC here?
A: The value was -0.106.

Q: For TCTAACAA, which “PBM E-score” value is on record?
A: Its value is -0.2.

Q: With TCCCGGCA as the sequence, how does the “PBM E-score” value read?
A: The value was 0.333.

Q: For CAAGAAAG, which “PBM E-score” value is on record?
A: Its value is -0.0661.

Q: How did the “PBM E-score” value turn out when CCACCCCC was run?
A: The value was -0.0149.

Q: How did the “PBM E-score” value turn out when CTTGTATA was run?
A: The value was -0.0791.

Q: With AGGAACCA as the sequence, how does the “PBM E-score” value read?
A: The value was -0.149.

Q: How did the “PBM E-score” value turn out when AGTACTGC was run?
A: The value was -0.217.

Q: For ATGTGCTG, which “PBM E-score” value is on record?
A: The value was -0.0375.

Q: With GTCTGTGA as the sequence, how does the “PBM E-score” value read?
A: The value was -0.222.

Q: With CTTTCATC as the sequence, how does the “PBM E-score” value read?
A: The value was -0.135.

Q: How did the “PBM E-score” value turn out when TCATACGA was run?
A: Its value is -0.0489.

Q: For CGCGGCCC, which “PBM E-score” value is on record?
A: The value was 0.202.

Q: With GAGCTGAC as the sequence, how does the “PBM E-score” value read?
A: The value was -0.0423.

Q: Which “PBM E-score” value does the source give for CGGAAGAC here?
A: Its value is 0.334.

Q: With CTTTAGCA as the sequence, how does the “PBM E-score” value read?
A: The value was -0.0846.

Q: With GCCTTAAA as the sequence, how does the “PBM E-score” value read?
A: The value was -0.0692.

Q: For ACATGTGG, which “PBM E-score” value is on record?
A: Its value is -0.0377.

Q: With AAGTTGGA as the sequence, how does the “PBM E-score” value read?
A: The value was -0.188.

Q: With CGTTAGGA as the sequence, how does the “PBM E-score” value read?
A: Its value is 0.126.

Q: CGGTTTAA was tested. Which “PBM E-score” value did it give?
A: Its value is 0.12.

Q: With CATCAGAC as the sequence, how does the “PBM E-score” value read?
A: Its value is -0.149.

Q: How did the “PBM E-score” value turn out when CACTATTA was run?
A: Its value is 0.0057.

Q: For ACGCCCAT, which “PBM E-score” value is on record?
A: Its value is 0.00399.

Q: ACCCATGG was tested. Which “PBM E-score” value did it give?
A: The value was -0.00299.

Q: With CGATATTA as the sequence, how does the “PBM E-score” value read?
A: The value was 0.176.

Q: With CCATGAGG as the sequence, how does the “PBM E-score” value read?
A: Its value is 0.0433.

Q: With GCAGAAAA as the sequence, how does the “PBM E-score” value read?
A: The value was 0.0387.

Q: With ATTACTGC as the sequence, how does the “PBM E-score” value read?
A: The value was 0.0346.

Q: For GTAGAGAA, which “PBM E-score” value is on record?
A: The value was -0.0517.

Q: With AGCTCCCA as the sequence, how does the “PBM E-score” value read?
A: Its value is -0.16.

Q: How did the “PBM E-score” value turn out when ACCGTGCA was run?
A: Its value is -0.0991.

Q: AAAAACTC was tested. Which “PBM E-score” value did it give?
A: The value was 0.127.

Q: With CCAGAATA as the sequence, how does the “PBM E-score” value read?
A: The value was -0.0334.

Q: For AACATCTA, which “PBM E-score” value is on record?
A: Its value is -0.214.

Q: Which “PBM E-score” value does the source give for CCAACTAA here?
A: The value was -0.0336.

Q: How did the “PBM E-score” value turn out when CACGGTCC was run?
A: The value was -0.0441.

Q: How did the “PBM E-score” value turn out when CCACTTCA was run?
A: Its value is -0.13.

Q: How did the “PBM E-score” value turn out when CAGATTCA was run?
A: Its value is -0.283.

Q: For ACCCTTCC, which “PBM E-score” value is on record?
A: The value was 0.124.

From the supplement of paper PMC3334620
